# According to ChEMBL document CHEMBL4888484, “Replenishing the malaria drug discovery pipeline: Screening and hit evaluation of the MMV Hit Generation Library 1 (HGL1) against asexual blood stage Plasmodium falciparum ,using a nano luciferase reporter read-out” (2022):
# Hit rate of the full screen: of about 4,800 compounds, about 420 (8.8%) showed an effect of 50% or more. The list shows a part of the results.
# Tested on: Plasmodium falciparum
# Assay: Confirmatory screen in NF54 nanoGlo assay, in single point, at 2uM, 72h
# Type: functional, Erythrocyte
# Settings: timepoint 72 hour
row,SMILES,% Inhibition [%]
1,O=C(NCCCN1CCOCC1)C1C2CCCC21 (stereo unspecified),2
2,CCc1ccc(C(NC(=O)C2CCNC2)C(C)(C)C)o1 (stereo unspecified),-8
3,NS(=O)(=O)N[C@H]1CCCc2sc(Cl)cc21,8
4,COc1ccc(CC(=O)NCCn2c(C(F)(F)F)nc3ccccc32)cc1,42
5,Cc1nnc(-c2ccco2)c2cn(-c3ccc(Cl)cc3)nc12,-8
6,Cc1cnc(C2CCC2)n1CCNS(=O)(=O)c1ccccc1,-4
7,O=C(Nc1ccc(F)cc1)c1c(-c2ccc(Cl)cc2)nc2n1CCS2(=O)=O,0
8,COc1cc(CNCc2ccco2)ccc1OCc1cccc(C)c1,3
9,CCn1ncc2ccc(N[C@@H](C)C3(O)CCOCC3)cc21,2
10,O=C(N[C@H](c1ccccc1)C1CC1)C(c1ccccc1)c1ccccc1,10
11,CC1CN(C(=O)C(C(C)C)N2CC(C)OC(C)C2)CCO1 (stereo unspecified),-7
12,NC(=O)C1CCN(C(=O)NC2CCCCCC2)CC1,-6
13,COc1ccnc(NCc2ccc(N3CCOCC3)cc2)n1,-3
14,CCCNC(=O)Cn1nc2cc(-c3ccc(OC)cc3)nc(C)n2c1=O,-11
15,CC[C@@H](C(=O)Nc1cccc(C(F)(F)F)c1)n1c(C)nc2onc(C)c2c1=O,12
16,COCc1nsc(N2CC(C)OC3(CCCOC3)C2)n1 (stereo unspecified),-2
17,Oc1ccc(Br)cc1-c1nc2cnccn2c1NC1CCCCC1,25
18,Brc1cnn(Cc2cnc(NC3C4CCOC4C34CCC4)s2)c1 (stereo unspecified),1
19,Cc1nn(C)cc1-c1cc(-c2nnc(Nc3ccn(Cc4ccccc4Cl)n3)s2)no1,16
20,Cc1cc(C)n(-c2ccc(-c3nnc(-c4cc5cc(Oc6ccccc6)ccc5[nH]4)s3)cc2)n1,5
21,CC(C)(C)n1ncnc1NC(=O)c1cc(Cl)cc(Cl)c1,29
22,COc1cc(CNCCCN2CCOCC2)ccc1OCc1ccc(Cl)cc1,34
23,O=C(NCc1ccccn1)c1cc(C(F)(F)F)cc(C(=O)Nc2ccccc2)n1,8
24,O=C(Nc1ccncc1)c1ccc2ccccc2n1,0
25,Cn1c(CN2CCN(c3ccccc3)CC2)c(C#N)c2ccccc21,-9
26,Cc1c(-c2nn(-c3nc(C4CC4)cc(C(F)(F)F)n3)c(-c3cnn(C)c3C)c2Cl)cnn1C,69

row,SMILES,% Inhibition [%]
1,Cc1ccc(NC(=O)c2cc[nH]n2)c(C)c1,-18
2,Nc1nonc1C(=O)N1CCN(C(=O)Nc2ccc3c(c2)OCO3)CC1,-9
3,Cc1nc(C(=O)Nc2[nH]c(=O)ncc2F)c(-c2ccccc2)o1,85
4,CCn1nc(-n2cnnc2)c(NS(=O)(=O)c2ccc(Br)cc2C)c1C,2
5,COc1ccccc1NC(=O)CC1CS(=O)(=O)CC1CC(=O)Nc1ccccc1OC (stereo unspecified),1
6,Cn1ccnc1CN1CCC[C@@](O)(CNS(=O)(=O)c2cccs2)CC1,-10
7,O=C(N[C@@H](CCO)c1ccco1)c1cc(Cn2cccn2)on1,-16
8,COc1ccc(CNC(=O)[C@H]2CN(C(=O)c3ccncc3)CC23CCCCC3)c(OC)c1,-11
9,c1ccc2cc(-c3ccc4ccccc4n3)ccc2c1,-1
10,Cc1ccc(S(=O)(=O)C[C@H](CN2CCN(C)CC2)N2CCN(C)CC2)cc1,-6
11,CCC(CC)(NCC(=O)NC1CC1)c1ccc(Cl)cc1,-12
12,CC(=O)N1CCc2cc(NS(=O)(=O)c3cc(C)ccc3O)ccc21,-12
13,CCc1nn(-c2ccccc2)c(Oc2ccccc2)c1CN(C[C@H]1CCCO1)C(=O)C(C)C,-2
14,CN(C)Cc1cn(C[C@H]2C[C@@H](NC(=O)Nc3ccc4c(c3)OCCO4)[C@H](O)[C@@H]2O)nn1,0
15,O=S(=O)(c1ccc(Br)cc1)N1CCOC12CCCCC2,-7
16,Cn1cc(NC(=O)C(=O)NCC2(c3ccc(F)cc3F)CC2)cn1,1
17,Clc1ccc(NC2(c3noc([C@@H]4CCCCO4)n3)CCC2)cc1,5
18,CCc1c[nH]c(CNC(=O)C2(C(=O)NC3CC3)CCC2)n1,5
19,CC(=O)N[C@H](C(=O)N1CCCC1)C(C)C,-4
20,N#CC1(NC(=O)c2ccncc2Cl)CCCC1,9
21,CCCc1cc(-c2nc(-c3ccc(-n4nc(C)cc4N)cc3)no2)n(C)n1,48
22,CC(=O)c1cc(-c2cc(O)cc(CC[C@H]3CCCCN3)c2)ccc1O,78
23,C=CCOc1cc(C(=O)N2CCCCC2)cc2occc12,-4
24,O=C(NOCc1ccc(F)cc1)NC1CCCCC1,-5
25,Cc1ncsc1COC(=O)c1ccnc(N(C)C)c1,-1
